In the supplement of paper PMC4967469:

Legend:
Test in all cases: Viability of human cancer cell lines after 72 h of drug (GDSC screen)
Shikonin = compound: CC(C)=CC[C@@H](O)C1=CC(=O)c2c(O)ccc(O)c2C1=O [Shikonin]; conditions: top dose 16 µM; top dose inferred
Protocol: (§1)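 Human cancer cell lines in 384-well plates, medium with 10% serum, drug for 72 h over a 256-fold dose range (nine 2-fold or five 4-fold steps up to the top dose). Adherent lines were fixed and stained with the nucleic acid dye Syto60, suspension lines read with resazurin; signal relative to control wells, capped at 0 and 100%. One two-parameter sigmoid per drug and line, fitted in a mixed model over all curves with the slope shared within a line.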

CGP-082996 (CINK4) = compound: CCNc1cc(NC2CCC(O)CC2)nc(Nc2ccc3c(ccn3Cc3ccccc3)c2)n1 [CGP-082996 (CINK4)]; conditions: top dose 5.12 µM; top dose inferred
Protocol: as §1

Wee1 inhibitor 681640 = compound: O=C1NC(=O)c2c1c(-c1ccccc1Cl)cc1[nH]c3ccc(O)cc3c21 [Wee1 inhibitor 681640]; conditions: top dose 2 µM; top dose inferred
Protocol: as §1

VX-702 = compound: NC(=O)c1ccc(N(C(N)=O)c2c(F)cccc2F)nc1-c1ccc(F)cc1F [VX-702]; conditions: top dose 2 µM; top dose inferred
Protocol: as §1

Olaparib = compound: O=C(c1cc(Cc2n[nH]c(=O)c3ccccc23)ccc1F)N1CCN(C(=O)C2CC2)CC1 [Olaparib]
Protocol: as §1

XMD8-85 = compound: COc1cc(N2CCN(C)CC2)ccc1Nc1ncc2c(n1)N(C)c1ccccc1C(=O)N2C [XMD8-85]; conditions: top dose 8 µM; top dose inferred
Protocol: as §1

BMS-536924 = compound: Cc1cc(N2CCOCC2)cc2[nH]c(-c3c(NC[C@@H](O)c4cccc(Cl)c4)cc[nH]c3=O)nc12 [BMS-536924]
Protocol: as §1

A-770041 = compound: COc1cc(-c2nn([C@H]3CC[C@H](N4CCN(C(C)=O)CC4)CC3)c3ncnc(N)c23)ccc1NC(=O)c1cc2ccccc2n1C [A-770041]; conditions: top dose 5.12 µM; top dose inferred
Protocol: as §1

SB-525334 = compound: Cc1cccc(-c2[nH]c(C(C)(C)C)nc2-c2ccc3nccnc3c2)n1 [SB-525334]; conditions: top dose 20 µM; top dose inferred
Protocol: as §1

BIRB 0796 = compound: Cc1ccc(-n2nc(C(C)(C)C)cc2NC(=O)Nc2ccc(OCCN3CCOCC3)c3ccccc23)cc1 [BIRB 0796]; conditions: top dose 10 µM; top dose inferred
Protocol: as §1

[1] = top dose 5 µM, screen: GDSC drug entry 1017, top dose inferred
[2] = top dose 10 µM, screen: GDSC drug entry 1495
[3] = top dose 4 µM, screen: GDSC drug entry 1091, top dose inferred
[4] = top dose 5.12 µM, screen: GDSC drug entry 62

| Cell Line | AUC (Shikonin) | IC50 (Shikonin) | AUC (CGP-082996 (CINK4)) | IC50 (CGP-082996 (CINK4)) | AUC (Wee1 inhibitor 681640) | IC50 (Wee1 inhibitor 681640) | AUC (VX-702) | IC50 (VX-702) | AUC (Olaparib; [1]) | IC50 (Olaparib; [1]) | AUC (Olaparib; [2]) | IC50 (Olaparib; [2]) | AUC (XMD8-85) | IC50 (XMD8-85) | AUC (BMS-536924; [3]) | IC50 (BMS-536924; [3]) | AUC (BMS-536924; [4]) | IC50 (BMS-536924; [4]) | AUC (A-770041) | IC50 (A-770041) | AUC (SB-525334) | IC50 (SB-525334) | AUC (BIRB 0796) | IC50 (BIRB 0796) |
| --- | --- | --- | --- | --- | --- | --- | --- | --- | --- | --- | --- | --- | --- | --- | --- | --- | --- | --- | --- | --- | --- | --- | --- | --- |
| AM-38 (glioma, semi-adherent) | 0.33 | 0.333 µM | 0.986 | > 5.12 µM | 0.965 | > 2 µM | 0.953 | > 2 µM | 0.969 | > 5 µM | 0.976 | > 10 µM | 0.988 | > 8 µM | 0.975 | > 4 µM | 0.974 | > 5.12 µM | 0.988 | > 5.12 µM | 0.953 | > 20 µM | – | – |
| GOTO (neuroblastoma, adherent) | 0.657 | 2.91 µM | 0.929 | > 5.12 µM | – | – | 0.982 | > 2 µM | 0.955 | > 5 µM | 0.794 | 5.35 µM | 0.909 | > 8 µM | 0.905 | > 4 µM | 0.843 | 4.38 µM | 0.873 | > 5.12 µM | 0.653 | 3.53 µM | 0.882 | > 10 µM |
| H-EMC-SS (chondrosarcoma, adherent) | 0.692 | 4.1 µM | 0.981 | > 5.12 µM | 0.867 | > 2 µM | – | – | – | – | 0.979 | > 10 µM | 0.976 | > 8 µM | – | – | 0.979 | > 5.12 µM | 0.976 | > 5.12 µM | 0.836 | 19.2 µM | 0.789 | 5.9 µM |
| HA7-RCC (kidney, adherent) | 0.502 | 1.02 µM | 0.826 | 3.54 µM | – | – | 0.984 | > 2 µM | 0.984 | > 5 µM | 0.869 | > 10 µM | 0.86 | 7.9 µM | 0.925 | > 4 µM | 0.819 | 3.31 µM | 0.699 | 1.24 µM | 0.965 | > 20 µM | 0.958 | > 10 µM |
| HD-MY-Z (Hodgkin lymphoma, adherent) | 0.364 | 0.419 µM | 0.897 | > 5.12 µM | – | – | 0.957 | > 2 µM | 0.907 | > 5 µM | 0.883 | > 10 µM | 0.96 | > 8 µM | 0.93 | > 4 µM | 0.942 | > 5.12 µM | 0.801 | 2.51 µM | 0.901 | > 20 µM | 0.962 | > 10 µM |
| HEL (acute myeloid leukaemia, semi-adherent) | 0.51 | 1.06 µM | 0.937 | > 5.12 µM | – | – | – | – | – | – | 0.983 | > 10 µM | 0.88 | 5.91 µM | 0.956 | > 4 µM | 0.777 | 1.72 µM | 0.966 | > 5.12 µM | 0.965 | > 20 µM | – | – |
| HL-60 (acute myeloid leukaemia, suspension) | 0.601 | 1.84 µM | 0.984 | > 5.12 µM | 0.983 | > 2 µM | 0.956 | > 2 µM | – | – | – | – | 0.847 | 5.02 µM | 0.956 | > 4 µM | 0.465 | 0.26 µM | 0.875 | 4.17 µM | 0.926 | > 20 µM | – | – |
| HT-144 (melanoma, adherent) | 0.417 | 0.577 µM | 0.741 | 1.72 µM | 0.927 | > 2 µM | – | – | – | – | 0.959 | > 10 µM | 0.947 | > 8 µM | 0.932 | > 4 µM | 0.762 | 2.03 µM | 0.835 | 3.92 µM | 0.982 | > 20 µM | 0.981 | > 10 µM |
| KALS-1 (glioma, adherent) | 0.514 | 1.11 µM | 0.913 | > 5.12 µM | – | – | – | – | – | – | 0.975 | > 10 µM | 0.82 | 6.99 µM | 0.973 | > 4 µM | 0.926 | > 5.12 µM | 0.738 | 2.01 µM | 0.945 | > 20 µM | – | – |
| KASUMI-1 (acute myeloid leukaemia, suspension) | 0.189 | 0.117 µM | 0.982 | > 5.12 µM | – | – | 0.932 | > 2 µM | 0.969 | > 5 µM | 0.983 | > 10 µM | 0.857 | 6.52 µM | 0.588 | 0.437 µM | 0.937 | > 5.12 µM | 0.982 | > 5.12 µM | – | – | – | – |
| KG-1 (acute myeloid leukaemia, suspension) | 0.579 | 1.61 µM | 0.98 | > 5.12 µM | 0.969 | > 2 µM | – | – | – | – | – | – | 0.984 | > 8 µM | 0.836 | 2.25 µM | 0.932 | > 5.12 µM | 0.989 | > 5.12 µM | 0.893 | 19.5 µM | 0.986 | > 10 µM |
| KMS-12-BM (myeloma, suspension) | 0.3 | 0.309 µM | 0.966 | > 5.12 µM | – | – | 0.985 | > 2 µM | 0.99 | > 5 µM | – | – | 0.806 | 3.25 µM | – | – | 0.914 | > 5.12 µM | 0.983 | > 5.12 µM | 0.983 | > 20 µM | – | – |
| MOLM-13 (acute myeloid leukaemia, suspension) | 0.64 | 2.38 µM | 0.915 | > 5.12 µM | 0.961 | > 2 µM | 0.973 | > 2 µM | 0.942 | > 5 µM | 0.9 | > 10 µM | 0.778 | 3.03 µM | 0.9 | > 4 µM | 0.383 | 0.156 µM | 0.913 | > 5.12 µM | 0.946 | > 20 µM | – | – |

A lower IC50 marks a more sensitive line; a limit (>, <) means that the fit lies beyond the doses tested. The AUC spans the tested range (256-fold, ending at the top dose) of the same fit; values near 1 show little effect. Where the top dose is marked as inferred, it was calculated from the reported fits. For some of these results: An entry number marks a drug with two screens in the source, which often give different values.
